Results reported in the BET-seq Pho4 binding data (Le et al. 2018).
This is one part of the list. Values were computed here from the reads of four pooled replicates and scatter widely.

The sequences below were run against T1, Pho4 (S. cerevisiae) (UniProt P07270) (assay: relative binding free energy (BET-seq); higher = weaker binding). Settings: reference: library average.
T1 sequence: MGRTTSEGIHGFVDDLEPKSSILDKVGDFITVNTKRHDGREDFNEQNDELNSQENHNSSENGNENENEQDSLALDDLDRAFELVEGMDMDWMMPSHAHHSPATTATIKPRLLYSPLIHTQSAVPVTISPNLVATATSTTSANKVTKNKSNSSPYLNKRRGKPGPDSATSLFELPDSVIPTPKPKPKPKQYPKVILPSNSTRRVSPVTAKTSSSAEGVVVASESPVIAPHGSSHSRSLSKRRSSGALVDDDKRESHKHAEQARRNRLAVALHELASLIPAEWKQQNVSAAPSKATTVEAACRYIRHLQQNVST

Sequence	relative binding free energy [kcal/mol]
ATGACCACGTGTGTTT	0.1
AGGGTCACGTGGGAAC	-0.02
TGTCGCACGTGTTAGT	0
AGCTACACGTGGTTTG	0.01
TGGCTCACGTGAGCTT	0.42
AATTGCACGTGAGGAT	0.09
GTCTGCACGTGGTGAA	0.01
GGGTCCACGTGAGGGG	0.24
AGAAGCACGTGATGCG	0.12
GCTGGCACGTGGCTGG	-0.06
ATGAGCACGTGAACGG	0.24
GTGCCCACGTGTGTGG	-0.02
GTTCGCACGTGTGTTA	0.03
TAGGGCACGTGAGAAG	0.27
TATGACACGTGAAGGT	0.25
CGATTCACGTGAAGTG	0.3
CAAGTCACGTGGTTGG	0.2
TATTGCACGTGTGTGT	0.02
ACCGTCACGTGGGGTG	-0.1
GGTTTCACGTGAGAGG	0.32
GGTTCCACGTGGTGTG	0.08
GGGCTCACGTGGTATT	0.17
TGTAGCACGTGTTGCT	-0.04

Sequence	relative binding free energy [kcal/mol]
AGACTCACGTGGTGGG	0.19
TGTCTCACGTGTGTGC	0.21
ATAATCACGTGATGGT	0.24
CATAGCACGTGTAGGT	0.05
GGCGGCACGTGTGTTT	0.11
TGGGTCACGTGGTGAA	0.13
TAAACCACGTGGATGT	0.1
GATTGCACGTGTTGCT	0.08
ATGGGCACGTGTTTTA	-0.13
TGGGGCACGTGTGCAT	-0.17
TGGGCCACGTGTGGCA	-0.07
GGTGGCACGTGTTGGC	-0.05
CTTGACACGTGGAGGT	0.08
TTAAGCACGTGTTGAA	-0.04
TATGTCACGTGACGTT	0.22
TATTCCACGTGGTAGT	-0.03
CGGATCACGTGTGTTG	0.2
GGAGGCACGTGGCGAT	-0.01
GGGTCCACGTGGTTAG	-0.02
ATGGCCACGTGTGGCG	-0.1
CGCAGCACGTGTGGTA	0.14
TACGGCACGTGGGGTT	-0.31
TGAGGCACGTGCAGGA	-0.06

Sequence	relative binding free energy [kcal/mol]
AATTACACGTGAAGGG	0.3
TGGCGCACGTGTATAG	-0.16
TGAAGCACGTGTATGG	0.02
TTATTCACGTGATGGA	0.09
TTTGGCACGTGGTATG	-0.12
GGGGCCACGTGAGTGT	0.19
TTTGTCACGTGCCAGG	0.15
GGGATCACGTGGACTT	0.39
TCGGGCACGTGGGGTT	-0.24
GGAAACACGTGAGTTG	0.35
AACGTCACGTGTTTTG	0.03
CGGTGCACGTGGTATT	-0.2
GCGTTCACGTGTTCGT	0.18
ATTTGCACGTGTGTTG	0.02
TTAAGCACGTGGAGAG	-0.16
GCGTACACGTGTTAGG	0.21
GGAGTCACGTGCTTGT	0.18
CGATTCACGTGTTTGG	0.34
TTAATCACGTGCATTT	0.28
GATTTCACGTGGCAGG	0.31
TTAGGCACGTGGTAAT	-0.11
TATATCACGTGAGCGT	0.14
TTTAACACGTGGTTCG	0

Sequence	relative binding free energy [kcal/mol]
TTGATCACGTGCTTTG	0.03
GGCAGCACGTGGAGGA	0.05
TCAATCACGTGCGGGG	0.18
ATTAGCACGTGTTGTT	-0.01
AGTGTCACGTGCCGGT	-0.05
ATCGTCACGTGTTGGA	0.16
GTGGGCACGTGGTGAT	-0.05
TGTAACACGTGGGTTT	-0.03
CTGTTCACGTGTGGGG	0.25
TGAATCACGTGTTAAT	0.15
AAATACACGTGTCGGG	0.15
TGTTACACGTGTCAGG	0.07
GGTACCACGTGGTGTT	-0.04
TAACGCACGTGGGGGC	-0.29
TATTTCACGTGTTAGC	0.29
ATTAACACGTGAAGTA	0.35
TCGGTCACGTGGGACG	0.04
GTGTGCACGTGTGGGG	0.07
AAGGTCACGTGGGTCG	-0.02
AAGGGCACGTGGGGAT	-0.17
TATGGCACGTGCTAGG	-0.1
TGAGGCACGTGAGGCG	-0.01
GTTCGCACGTGCGTGT	0.13

Sequence	relative binding free energy [kcal/mol]
GGGGCCACGTGCGGCT	-0.11
TAGGGCACGTGCGGCT	-0.18
GGGTACACGTGAGGGT	0.39
GCGTGCACGTGGGTGC	-0.15
AGGGGCACGTGAAGTT	0.17
GATTACACGTGTTTAT	0.23
GTGGACACGTGTGGCT	0.13
GCTGGCACGTGGTTTG	-0.05
ACGGGCACGTGGTCTG	-0.16
TGGATCACGTGGAGGG	0.14
TAGTTCACGTGGCTGC	0.33
ATATTCACGTGCTTGG	0.36
ATAAACACGTGGTTTT	-0.12
TCAAGCACGTGTGTTG	-0.01
ATTGACACGTGCTGGG	-0.11
GGAAGCACGTGTTGGT	-0.13
GGAAGCACGTGTTCGT	0.02
ATATACACGTGAGTGA	0.18
AGCGACACGTGAGGTG	0.15
GTGATCACGTGCGTCT	0.08
TTGGTCACGTGTGTAT	0.12
GTGTACACGTGTATGT	0.08
ATACTCACGTGTGATT	0.2
